Results as given in publication PMC8986528.
These are yes or no findings as the source states them, for the method shown. For part of these data: Binding seen in cells or lysates may run through a third protein. Some binding calls cover weakened binding; strength is not graded here. For part of these data: Tags and fused reporters may be left off the sequences shown.

Sequences of proteins named here, by UniProt entry; tags and fusion partners are left off.
UniProt Q8IZL8: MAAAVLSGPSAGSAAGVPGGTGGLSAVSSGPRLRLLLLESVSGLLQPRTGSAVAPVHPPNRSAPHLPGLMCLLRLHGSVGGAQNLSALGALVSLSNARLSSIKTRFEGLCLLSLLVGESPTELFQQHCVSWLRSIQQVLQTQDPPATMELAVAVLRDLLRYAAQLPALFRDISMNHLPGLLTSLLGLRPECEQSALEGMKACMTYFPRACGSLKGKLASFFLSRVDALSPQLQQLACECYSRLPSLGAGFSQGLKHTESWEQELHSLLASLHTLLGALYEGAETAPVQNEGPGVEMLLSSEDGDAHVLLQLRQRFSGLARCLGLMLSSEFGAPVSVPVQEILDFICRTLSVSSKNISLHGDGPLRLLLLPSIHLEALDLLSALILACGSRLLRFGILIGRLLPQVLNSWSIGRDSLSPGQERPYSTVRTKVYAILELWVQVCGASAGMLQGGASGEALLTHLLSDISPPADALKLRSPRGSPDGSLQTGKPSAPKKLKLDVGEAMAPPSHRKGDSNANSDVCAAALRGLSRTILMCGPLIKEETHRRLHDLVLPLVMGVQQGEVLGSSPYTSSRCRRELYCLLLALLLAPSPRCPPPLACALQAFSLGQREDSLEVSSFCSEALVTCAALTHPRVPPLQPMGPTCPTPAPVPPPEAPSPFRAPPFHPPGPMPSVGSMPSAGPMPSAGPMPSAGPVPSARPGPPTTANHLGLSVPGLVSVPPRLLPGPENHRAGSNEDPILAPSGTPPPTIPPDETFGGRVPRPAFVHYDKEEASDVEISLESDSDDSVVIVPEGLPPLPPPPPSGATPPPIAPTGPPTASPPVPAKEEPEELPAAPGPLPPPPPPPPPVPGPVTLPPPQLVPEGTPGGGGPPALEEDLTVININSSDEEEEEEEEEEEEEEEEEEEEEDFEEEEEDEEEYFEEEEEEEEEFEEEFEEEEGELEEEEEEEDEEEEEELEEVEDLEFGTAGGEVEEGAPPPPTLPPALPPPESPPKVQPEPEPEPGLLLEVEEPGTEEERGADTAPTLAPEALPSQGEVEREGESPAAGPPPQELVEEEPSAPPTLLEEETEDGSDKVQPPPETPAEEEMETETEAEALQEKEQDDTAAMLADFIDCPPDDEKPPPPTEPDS
UniProt Q9H4L4: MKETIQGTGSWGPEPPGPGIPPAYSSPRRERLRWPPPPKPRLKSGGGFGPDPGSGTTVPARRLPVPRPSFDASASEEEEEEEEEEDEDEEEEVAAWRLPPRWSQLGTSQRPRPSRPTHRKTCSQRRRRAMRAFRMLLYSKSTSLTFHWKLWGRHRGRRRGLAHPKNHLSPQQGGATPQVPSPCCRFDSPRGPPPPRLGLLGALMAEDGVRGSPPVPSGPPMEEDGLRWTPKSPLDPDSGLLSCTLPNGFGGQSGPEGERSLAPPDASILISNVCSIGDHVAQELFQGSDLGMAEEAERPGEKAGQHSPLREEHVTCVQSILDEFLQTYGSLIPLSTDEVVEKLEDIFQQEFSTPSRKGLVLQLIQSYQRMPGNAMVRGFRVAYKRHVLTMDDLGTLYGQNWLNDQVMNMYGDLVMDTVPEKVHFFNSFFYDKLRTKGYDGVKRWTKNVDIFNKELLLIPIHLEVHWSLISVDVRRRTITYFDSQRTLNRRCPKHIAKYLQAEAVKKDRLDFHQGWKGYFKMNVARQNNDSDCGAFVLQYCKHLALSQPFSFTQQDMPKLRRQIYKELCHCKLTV
UniProt Q99496: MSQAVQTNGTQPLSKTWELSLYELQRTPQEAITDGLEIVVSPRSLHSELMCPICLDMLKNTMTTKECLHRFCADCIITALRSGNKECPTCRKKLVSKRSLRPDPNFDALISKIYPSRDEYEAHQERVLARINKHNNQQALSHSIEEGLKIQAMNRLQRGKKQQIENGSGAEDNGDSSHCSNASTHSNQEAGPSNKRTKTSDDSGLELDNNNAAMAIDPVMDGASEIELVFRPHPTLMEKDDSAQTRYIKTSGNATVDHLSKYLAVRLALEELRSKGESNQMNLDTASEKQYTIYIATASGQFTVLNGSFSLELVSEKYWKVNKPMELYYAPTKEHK
UniProt P83916: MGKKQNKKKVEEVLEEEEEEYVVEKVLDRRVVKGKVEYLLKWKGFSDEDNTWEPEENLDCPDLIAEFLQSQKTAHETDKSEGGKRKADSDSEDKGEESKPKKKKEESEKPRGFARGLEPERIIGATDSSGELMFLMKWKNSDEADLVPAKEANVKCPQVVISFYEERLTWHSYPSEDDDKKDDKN
UniProt Q13185: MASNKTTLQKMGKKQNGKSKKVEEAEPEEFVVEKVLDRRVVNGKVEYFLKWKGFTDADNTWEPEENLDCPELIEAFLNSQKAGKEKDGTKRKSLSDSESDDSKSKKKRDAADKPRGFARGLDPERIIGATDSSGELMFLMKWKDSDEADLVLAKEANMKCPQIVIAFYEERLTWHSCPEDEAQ
UniProt P45973: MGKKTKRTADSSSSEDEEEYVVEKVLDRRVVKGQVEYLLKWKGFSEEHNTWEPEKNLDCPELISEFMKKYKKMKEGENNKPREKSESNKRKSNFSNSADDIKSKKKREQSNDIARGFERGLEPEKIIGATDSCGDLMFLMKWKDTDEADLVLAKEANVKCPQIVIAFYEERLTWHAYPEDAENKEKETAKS

T1: NOL9 (yeast two-hybrid fusion) (human) (UniProt Q5SY16)
T1 sequence: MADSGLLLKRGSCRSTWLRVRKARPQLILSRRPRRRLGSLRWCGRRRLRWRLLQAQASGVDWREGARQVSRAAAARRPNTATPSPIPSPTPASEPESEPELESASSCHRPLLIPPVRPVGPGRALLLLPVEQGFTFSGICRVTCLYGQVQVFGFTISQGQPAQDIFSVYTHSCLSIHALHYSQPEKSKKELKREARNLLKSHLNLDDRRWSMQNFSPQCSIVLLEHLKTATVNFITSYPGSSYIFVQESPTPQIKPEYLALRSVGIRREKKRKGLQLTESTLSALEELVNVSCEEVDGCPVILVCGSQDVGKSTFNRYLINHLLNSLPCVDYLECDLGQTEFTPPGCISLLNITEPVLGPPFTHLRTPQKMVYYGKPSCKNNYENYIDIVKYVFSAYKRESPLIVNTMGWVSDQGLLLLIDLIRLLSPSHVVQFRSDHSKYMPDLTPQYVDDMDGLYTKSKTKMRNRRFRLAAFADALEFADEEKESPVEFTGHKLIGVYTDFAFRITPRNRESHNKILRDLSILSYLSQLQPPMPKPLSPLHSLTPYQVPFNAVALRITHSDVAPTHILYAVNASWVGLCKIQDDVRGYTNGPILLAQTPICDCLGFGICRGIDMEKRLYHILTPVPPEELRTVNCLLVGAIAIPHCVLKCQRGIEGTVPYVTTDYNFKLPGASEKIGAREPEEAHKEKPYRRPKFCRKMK

T2: TEX10 (yeast two-hybrid fusion) (human) (UniProt Q9NXF1)
T2 sequence: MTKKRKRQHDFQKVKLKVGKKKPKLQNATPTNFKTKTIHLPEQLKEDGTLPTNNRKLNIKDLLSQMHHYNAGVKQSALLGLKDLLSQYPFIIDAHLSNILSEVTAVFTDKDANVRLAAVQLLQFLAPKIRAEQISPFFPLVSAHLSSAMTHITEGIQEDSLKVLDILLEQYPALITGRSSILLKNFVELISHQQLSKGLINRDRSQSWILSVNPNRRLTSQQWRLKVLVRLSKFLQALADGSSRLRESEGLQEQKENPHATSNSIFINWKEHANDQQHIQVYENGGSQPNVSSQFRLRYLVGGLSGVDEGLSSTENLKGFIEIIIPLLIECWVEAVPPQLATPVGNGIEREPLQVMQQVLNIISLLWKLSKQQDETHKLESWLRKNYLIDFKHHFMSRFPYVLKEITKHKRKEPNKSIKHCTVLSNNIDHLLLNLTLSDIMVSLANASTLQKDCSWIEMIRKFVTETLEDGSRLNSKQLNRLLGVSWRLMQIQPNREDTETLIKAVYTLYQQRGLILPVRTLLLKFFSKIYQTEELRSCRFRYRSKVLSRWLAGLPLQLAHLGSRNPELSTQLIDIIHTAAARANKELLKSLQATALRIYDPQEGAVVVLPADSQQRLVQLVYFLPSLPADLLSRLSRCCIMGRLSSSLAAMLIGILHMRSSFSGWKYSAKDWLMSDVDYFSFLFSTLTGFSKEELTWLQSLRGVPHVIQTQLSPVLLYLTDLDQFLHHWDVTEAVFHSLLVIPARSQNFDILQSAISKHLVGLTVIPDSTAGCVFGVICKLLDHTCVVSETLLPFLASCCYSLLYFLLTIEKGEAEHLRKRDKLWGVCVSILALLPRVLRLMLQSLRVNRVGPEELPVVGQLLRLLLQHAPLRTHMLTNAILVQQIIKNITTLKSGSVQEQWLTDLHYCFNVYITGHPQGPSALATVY

T3: WDR18 (yeast two-hybrid fusion) (human) (UniProt Q9BV38)
T3 sequence: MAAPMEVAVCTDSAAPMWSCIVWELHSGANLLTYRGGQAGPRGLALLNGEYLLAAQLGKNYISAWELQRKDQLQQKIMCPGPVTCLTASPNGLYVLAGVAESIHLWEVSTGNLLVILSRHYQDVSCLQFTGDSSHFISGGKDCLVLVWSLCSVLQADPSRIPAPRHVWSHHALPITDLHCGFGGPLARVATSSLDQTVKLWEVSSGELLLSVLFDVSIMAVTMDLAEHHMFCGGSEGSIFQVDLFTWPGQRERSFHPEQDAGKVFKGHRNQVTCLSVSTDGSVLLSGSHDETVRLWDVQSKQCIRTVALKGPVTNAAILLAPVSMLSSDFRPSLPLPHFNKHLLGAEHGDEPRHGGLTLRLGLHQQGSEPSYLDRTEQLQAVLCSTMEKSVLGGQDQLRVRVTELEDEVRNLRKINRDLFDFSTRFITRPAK

T4: 3×Flag–WDR18 (human (endogenous in HEK 293FT)) (UniProt Q9BV38)
T4 sequence: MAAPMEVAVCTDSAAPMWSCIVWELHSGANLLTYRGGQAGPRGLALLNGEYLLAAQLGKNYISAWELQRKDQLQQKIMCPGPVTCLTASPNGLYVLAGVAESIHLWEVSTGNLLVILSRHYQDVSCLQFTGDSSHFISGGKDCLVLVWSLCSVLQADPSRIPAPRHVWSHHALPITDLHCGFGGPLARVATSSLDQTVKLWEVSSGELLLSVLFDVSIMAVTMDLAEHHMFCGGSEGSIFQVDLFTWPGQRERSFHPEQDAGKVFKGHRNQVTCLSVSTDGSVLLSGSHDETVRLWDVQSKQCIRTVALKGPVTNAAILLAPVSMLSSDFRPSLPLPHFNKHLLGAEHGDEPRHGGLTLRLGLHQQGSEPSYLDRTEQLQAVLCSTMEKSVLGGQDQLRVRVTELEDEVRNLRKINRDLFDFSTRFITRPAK

T5: TEX10 (human (endogenous in HEK 293FT)) (UniProt Q9NXF1)
T5 sequence: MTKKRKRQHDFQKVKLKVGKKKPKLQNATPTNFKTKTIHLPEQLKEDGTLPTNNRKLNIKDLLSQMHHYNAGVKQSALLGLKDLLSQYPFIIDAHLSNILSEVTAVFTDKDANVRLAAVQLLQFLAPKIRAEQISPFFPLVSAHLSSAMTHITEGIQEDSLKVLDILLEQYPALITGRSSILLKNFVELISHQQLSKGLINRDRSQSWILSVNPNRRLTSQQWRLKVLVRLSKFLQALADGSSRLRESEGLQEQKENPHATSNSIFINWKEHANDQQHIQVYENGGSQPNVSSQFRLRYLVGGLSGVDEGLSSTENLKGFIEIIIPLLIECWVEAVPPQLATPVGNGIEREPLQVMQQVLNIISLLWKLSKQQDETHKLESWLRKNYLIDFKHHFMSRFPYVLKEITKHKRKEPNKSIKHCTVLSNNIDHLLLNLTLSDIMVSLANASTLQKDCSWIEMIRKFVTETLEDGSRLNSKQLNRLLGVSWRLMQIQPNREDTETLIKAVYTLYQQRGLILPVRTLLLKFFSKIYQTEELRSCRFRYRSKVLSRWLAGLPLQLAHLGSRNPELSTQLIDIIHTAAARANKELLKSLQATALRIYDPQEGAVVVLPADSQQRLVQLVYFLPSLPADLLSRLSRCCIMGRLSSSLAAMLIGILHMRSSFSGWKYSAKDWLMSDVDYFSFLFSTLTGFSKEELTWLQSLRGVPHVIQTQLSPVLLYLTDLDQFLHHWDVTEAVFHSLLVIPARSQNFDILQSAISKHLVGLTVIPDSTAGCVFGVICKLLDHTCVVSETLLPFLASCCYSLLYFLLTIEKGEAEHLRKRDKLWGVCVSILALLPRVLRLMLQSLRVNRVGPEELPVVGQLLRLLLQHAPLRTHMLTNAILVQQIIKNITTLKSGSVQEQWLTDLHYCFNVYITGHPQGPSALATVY


Assays:
[1] = biological target: T1, NOL9 (yeast two-hybrid fusion) (human); assay: two-hybrid; yeast two-hybrid, bait pGBKT7 and prey pGADT7, growth on quadruple dropout medium (SC -Trp, -Leu, -His, -Ade), 30 °C
[2] = biological target: PELP1 (yeast two-hybrid fusion) (human) (UniProt Q8IZL8); assay: as above
[3] = biological target: T2, TEX10 (yeast two-hybrid fusion) (human); assay: as above
[4] = biological target: T3, WDR18 (yeast two-hybrid fusion) (human); assay: as above
[5] = biological target: T4, 3×Flag–WDR18 (human (endogenous in HEK 293FT)); assay: co-IP; immunoprecipitation from the DNase I-digested chromatin fraction of HEK 293FT cells (IP buffer 250 mM NaCl, 1% Triton X-100), Dynabeads Protein A/G, immunoblot; Fig. 1f, g with or without 500 U/ml benzonase
[6] = biological target: PELP1 (human (endogenous in HEK 293FT)) (UniProt Q8IZL8); assay: as above
[7] = biological target: SENP3 (human (endogenous in HEK 293FT)) (UniProt Q9H4L4); assay: as above
[8] = biological target: T5, TEX10 (human (endogenous in HEK 293FT)); assay: as above
[9] = biological target: RING1B (human (endogenous in HEK 293FT)) (UniProt Q99496); assay: as above
[10] = biological target: RING1B (human (endogenous in HEK 293FT)) (UniProt Q99496); assay: co-sedimentation; Flag–NOL9-associated and PHC2–Flag-associated proteins purified from the soluble chromatin fraction of cells with wild-type RING1B, eluted with 3×Flag peptide, 10–30% sucrose gradient, 16 h at 4 °C, fractions immunoblotted

Molecule	binding [1]	binding [2]	binding [3]	binding [4]	binding [5]	binding [6]	binding [7]	binding [8]	binding [9]	binding [10]
HP1β (CBX1), yeast two-hybrid fusion (from UniProt P83916 1-185)	no binding	no binding	no binding	no binding	–	–	–	–	–	–
HP1γ (CBX3), yeast two-hybrid fusion (from UniProt Q13185 1-183)	no binding	no binding	no binding	no binding	–	–	–	–	–	–
SUV39H1 (protein, UniProt O43463 1-412) MAENLKGCSVCCKSSWNQLQDLCRLAKLSCPALGISKRNLYDFEVEYLCDYKKIREQEYYLVKWRGYPDSESTWEPRQNLKCVRILKQFHKDLERELLRRHHRSKTPRHLDPSLANYLVQKAKQRRALRRWEQELNAKRSHLGRITVENEVDLDGPPRAFVYINEYRVGEGITLNQVAVGCECQDCLWAPTGGCCPGASLHKFAYNDQGQVRLRAGLPIYECNSRCRCGYDCPNRVVQKGIRYDLCIFRTDDGRGWGVRTLEKIRKNSFVMEYVGEIITSEEAERRGQIYDRQGATYLFDLDYVEDVYTVDAAYYGNISHFVNHSCDPNLQVYNVFIDNLDERLPRIAFFATRTIRAGEELTFDYNMQVDPVDMESTRMDSNFGLAGLPGSPKKRVRIECKCGTESCRKYLF	–	–	–	–	no binding	no binding	no binding	no binding	–	–

Further lines, results first:

binding [1]	binding [2]	binding [3]	binding [4]	binding [5]	binding [6]	binding [7]	binding [8]	binding [9]	binding [10]	Molecule
no binding	no binding	no binding	no binding	–	–	–	–	–	–	HP1α (CBX5), yeast two-hybrid fusion (from UniProt P45973 1-191)
–	–	–	–	–	–	–	–	binds	binds	TEX10 (protein, UniProt Q9NXF1 1-929) MTKKRKRQHDFQKVKLKVGKKKPKLQNATPTNFKTKTIHLPEQLKEDGTLPTNNRKLNIKDLLSQMHHYNAGVKQSALLGLKDLLSQYPFIIDAHLSNILSEVTAVFTDKDANVRLAAVQLLQFLAPKIRAEQISPFFPLVSAHLSSAMTHITEGIQEDSLKVLDILLEQYPALITGRSSILLKNFVELISHQQLSKGLINRDRSQSWILSVNPNRRLTSQQWRLKVLVRLSKFLQALADGSSRLRESEGLQEQKENPHATSNSIFINWKEHANDQQHIQVYENGGSQPNVSSQFRLRYLVGGLSGVDEGLSSTENLKGFIEIIIPLLIECWVEAVPPQLATPVGNGIEREPLQVMQQVLNIISLLWKLSKQQDETHKLESWLRKNYLIDFKHHFMSRFPYVLKEITKHKRKEPNKSIKHCTVLSNNIDHLLLNLTLSDIMVSLANASTLQKDCSWIEMIRKFVTETLEDGSRLNSKQLNRLLGVSWRLMQIQPNREDTETLIKAVYTLYQQRGLILPVRTLLLKFFSKIYQTEELRSCRFRYRSKVLSRWLAGLPLQLAHLGSRNPELSTQLIDIIHTAAARANKELLKSLQATALRIYDPQEGAVVVLPADSQQRLVQLVYFLPSLPADLLSRLSRCCIMGRLSSSLAAMLIGILHMRSSFSGWKYSAKDWLMSDVDYFSFLFSTLTGFSKEELTWLQSLRGVPHVIQTQLSPVLLYLTDLDQFLHHWDVTEAVFHSLLVIPARSQNFDILQSAISKHLVGLTVIPDSTAGCVFGVICKLLDHTCVVSETLLPFLASCCYSLLYFLLTIEKGEAEHLRKRDKLWGVCVSILALLPRVLRLMLQSLRVNRVGPEELPVVGQLLRLLLQHAPLRTHMLTNAILVQQIIKNITTLKSGSVQEQWLTDLHYCFNVYITGHPQGPSALATVY
